Records with an inconclusive call do not appear. The call rests on the fitted dose curve; in most records, active means well fitted cell-killing curve with a large enough effect; inconclusive means small, poorly fitted or top-dose-only effect; inactive means no such curve, though single readings can be large or run the other way. A structure can be active in one record and inactive in another. The source holds more than one record for some entries. The list is limited to them. There may be further records. The values listed for one entry are repeats across runs, samples, wells, individuals or studies. What stands in brackets tells the records apart. Letters hold for one entry only.
Potency means the concentration at half of the fitted maximal effect.

The nature of the first assay: qHTS of pediatric cancer cell lines to identify multiple opportunities for drug repurposing: Primary screen for NB1643 cells (AID 1347099). Further: nearly all actives have a fitted effect of over 50% in size. The note with it: NB1643 neuroblastoma viability, CellTiter-Glo luminescence, 48 h; series mostly up to 46 µM.
On to `O=C(NC(Cc1cc(=O)[nH]c2ccccc12)C(=O)O)c1ccc(Cl)cc1` (configuration not stated), for which the Potency entry was “inactive [sample A] and active: 9.35 µM [sample B]”.

For `CCCCC(CC)COC(=O)C(C#N)=C(c1ccccc1)c1ccccc1` (configuration not stated), the Potency entry was “active: 10.5 µM [sample A] and inactive [sample B]”.

Regarding `COc1cc2c(N3CCN(C(=O)Nc4ccc(OC(C)C)cc4)CC3)ncnc2cc1OCCCN1CCCCC1`, the Potency entry was “active: 20.9 µM [sample A] and inactive [sample B]”. Still for that read-out and setting: the value for `CN1CCC(=C2c3ccccc3CCc3sccc32)CC1` was “active: 13.2 µM [sample A] and inactive [sample B]”; that for `Cc1nccn1CC1CCc2c(c3ccccc3n2C)C1=O` (configuration not stated) was “active: 16.6 µM [sample A] and inactive [sample B]”. Same read-out and setting: under `CC1=C(C)C(=O)C(C(CCCCCC(=O)O)c2ccccc2)=C(C)C1=O` (configuration not stated) stands “active: 26.4 µM [sample A] and inactive [sample B]”.

The next assay in a line: qHTS of pediatric cancer cell lines to identify multiple opportunities for drug repurposing: Primary screen for LAN-5 cells (AID 1347100). To be noted: LAN-5 neuroblastoma viability, CellTiter-Glo luminescence, 48 h; series mostly up to 46 µM. The gist of the method:
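Viability after 48 h compound treatment at 37C, 500-1,000 cells/well, read as ATP luminescence with CellTiter-Glo. Primary screens used 11-point (MIPE, 0.78 nM-46 µM) or 8-point (NPC, 0.59 nM-46 µM) final concentrations; follow-up screens used 11-point dilutions.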
In general terms: In qHTS, concentration-response curves come from the screen itself.
On to `O=C(NCC1CCCCN1)c1cc(OCC(F)(F)F)ccc1OCC(F)(F)F` (configuration not stated), for which the Potency result was “active: 590 nM [sample A] and inactive [sample B]”.

Regarding `CCCc1cc(=O)[nH]c(=S)[nH]1`, the Potency result is “inactive [sample A] and active: 20.9 µM [sample B]”.

For `Cc1ccc(S(=O)(=O)NC(=O)NN2CC3CCCC3C2)cc1` (configuration not stated), the Potency result was “inactive [sample A] and active: 23.5 µM [sample B]”. For `CN(c1nccc(=O)[nH]1)C1CCN(c2nc3ccccc3n2Cc2ccc(F)cc2)CC1`, the Potency entry was “active: 14.8 µM [sample A] and inactive [sample B]”. Still for that read-out and setting: under `CC(C)c1nc(CN(C)C(=O)N[C@H](C(=O)N[C@@H](Cc2ccccc2)C[C@H](O)[C@H](Cc2ccccc2)NC(=O)OCc2cncs2)C(C)C)cs1` stands “active: 23.5 µM [sample A] and inactive [sample B]”; under `Clc1ccc(C(Cn2ccnc2)OCc2ccc(Sc3ccccc3)cc2)c(Cl)c1` (configuration not stated), “inactive [sample A] and active: 23.5 µM [sample B]”.

(Values after PubChem BioAssay (NCATS).)
